In the supplement of paper PMC10338343:
± gives the standard deviation. In all, about 5,500 sequences were measured (“pre-steady-state target cleavage rate”: median about 0.1, highest 2% from about 0.64 on). Only a part is listed here, and it is no random draw.

Each sequence was assayed on MIWI (PIWIL1) piRISC loaded with piRNA #2 (30 nt) (assay: pre-steady-state target cleavage rate (min^-1); MIWI and MILI are mouse PIWI proteins and EfPiwi is from a freshwater sponge; tags in brackets are library labels; higher = faster piRNA-guided slicing of the target). Details: guide: piRNA #2 5'p-UUAGGUAACCCAGUAGAUCCAGAGGAAUUC; auxiliary factor: 500 nM mouse GTSF1.
Procedure: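 Cleave-'n-Seq: a library of target RNAs (target site embedded in constant flanks, ACAGCATTCCGCGTTAGTGATATCCG... 5' flank; DNA-blocked outside the site) at 0.1 nM was incubated with 1 nM active mouse MILI or MIWI piRISC (synthetic 5'-monophosphorylated piRNA guide) with or without 500 nM mouse GTSF1 at 33 °C for 1 min to 16 h. Uncleaved targets were sequenced and normalised to non-target controls, and the pooled three trials were fitted to a burst-and-steady-state model to give the pre-steady-state cleavage rate (min^-1; k3 is constrained to at most 1e-4). Sequence is the target site only; target names encode pairing extent (gX:gY) and contiguous / 1-mismatch / 2-mismatch / bulge geometry. Fits with R² ≤ 0 are excluded.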

Row | Sequence | pre-steady-state target cleavage rate
1 | CUUAUCCUCUGGAUGUACUCGGUUACCUAA | 0.0802 ± 0.03
2 | CUUAAGCUCUCGAACUACUGGGUUACCUAA | 0.198 ± 0.024
3 | CAAUUCCUCUGGAUCUACUGGGUUACUCUAA | 0.264 ± 0.048
4 | CAAUUCCUCUCGAUCUACUGGGUUACCAAA | 0.904 ± 0.073
5 | CAAUUCCUCUGGAUCUACUGGGUUCACCUAA | 0.524 ± 0.065
6 | CUUUUCCUCUGGAUCUACUGGGUUGCCUAA | 0.41 ± 0.047
7 | CUUAACCUCUGGAUCUACUGGGCUACCUAA | 0.0918 ± 0.009
8 | CUUAAGGAGUGGAUCUACUGCGUUACGUAA | 0.134 ± 0.033
9 | CUAUUGCACUGGAUCUACUGGGUUACCUAA | 0.413 ± 0.044
10 | CUUAAGGAGUGGAUCUAUUGGGUUACCUAA | 0.018 ± 0.0049
11 | CAAUUCCUCUGGAUGUACUGGGUAACCUAA | 0.172 ± 0.051
12 | CUUAUCCUCUGGACCUACUGGGUUACCUAA | 0.133 ± 0.017
13 | GAAUUCCUCUGGAUCUACUGGCUUACCUAA | 0.113 ± 0.02
14 | CUUAAGGUCUGGAUCUACAGGGUUACCUAA | 0.165 ± 0.013
15 | CUUAUCCUCUGGAACUACUGGGUUACCUAA | 0.451 ± 0.034
16 | CUUAUCCUCUGGAUCUACUGCGUUACCAAA | 0.349 ± 0.064
17 | GAAUUCCUCUGGAUCUUCUGGCUUACCUAA | 0.0526 ± 0.012
18 | CUUAAGGAGAGGAAUCUACUGGGUUACCUAA | 0.00435 ± 0.0032
19 | CAAUUCCUCAGGAUCUACUGGGUUAGCUAA | 0.245 ± 0.051
20 | CUUAACCUGUGGAUCUACUGGGUUAGCUAA | 0.0587 ± 0.0086
21 | CUUAACGUCUGGAUCUACUGGGUUUCCUAA | 0.187 ± 0.021
22 | CUUAAGCUCUGGAUCUACGGGUUACCUAA | 0.0238 ± 0.0057
23 | GAAUUCCUCUGGAUCUACUGGCGUUACCUAA | 0.0102 ± 0.0041
24 | CUUUUGCUCUGGAUCUACUGGGUUACCAAA | 0.292 ± 0.036
25 | GUAUUCCUCUGGAUCUACUGCGUUACCUAA | 0.267 ± 0.049

Row | Sequence | pre-steady-state target cleavage rate
26 | CUUAAGGUCUGGAUCUACUGCGUUUCCUAA | 0.0557 ± 0.014
27 | CAUUUCCUCUGGAUCUACUGGGUUUCCUAA | 0.46 ± 0.066
28 | CAAUUCCUCUGGAUCUACAGGGUUACGUAA | 0.298 ± 0.041
29 | CUUAUCCUCUGGUUCUACUGGGUAACCUAA | 0.0868 ± 0.016
30 | CUUAAGCUCUAGGAUCUACUGGGUUACCUAA | 0.15 ± 0.018
31 | CUAUUCCUCUGGAACUACAGGGUUACCUAA | 0.334 ± 0.028
32 | CAAAUCCUCUCGAUCUACUGGGUUACCUAA | 0.641 ± 0.05
33 | CUAUUCCUCUGGAUCUACUGGAUUACCUAA | 0.334 ± 0.037
34 | CUUAAGGACAGGAUCUACUGGGUUACCAAA | 0.0161 ± 0.011
35 | CUUAAGGACAGGAUCUAGUGGGUUACCUAA | 0.00774 ± 0.0051
36 | CAAUUCCUCUGGAUCUACUGGCUAACCUAA | 0.0107 ± 0.0051
37 | CUUAAGCACAGGAUCUACUGGGUUACCUAA | 0.0496 ± 0.011
38 | GAAUUCCUCUGGAUCUACUGCGUUACGUAA | 0.474 ± 0.066
39 | CUAAAGCUCUGGAUCUACUGGGUUACCUAA | 0.0853 ± 0.018
40 | CUUAACCUCUGGAUCUACUGGGUGUACCUAA | 0.129 ± 0.015
41 | CUAUUCCUCUGGAUCUUCUGGGAUACCUAA | 0.15 ± 0.022
42 | CUUAACCUCUGGAUCUACUGGGAAUCCUAA | 0.0514 ± 0.014
43 | CUUAUCGUCUGGAUCUACUGGGUUACGUAA | 0.521 ± 0.088
44 | CUUUUCCUCUGGUUCUACUGGGUUAGCUAA | 0.306 ± 0.051
45 | GAAUUCCUCUGGAUCUACUGCGUUAGCUAA | 0.0176 ± 0.01
46 | CUUAAGCUCUGGAUCUACUGGGUCUACCUAA | 0.118 ± 0.013
47 | CUUUUCCACUGGAUGUACUGGGUUACCUAA | 0.426 ± 0.039
48 | CUUUUCCUGUGGAUCUACUGCGUUACCUAA | 0.399 ± 0.054
49 | CAAUUCCUCUGGAUCUACUGGGUUACCUCAA | 0.429 ± 0.047
50 | CUUAAGGUCUGGAUCUACUGGCUUACCAAA | 0.0139 ± 0.0087

Row | Sequence | pre-steady-state target cleavage rate
51 | CUUAUCCUCUGGAUCUACUGGGAAUCCUAA | 0.212 ± 0.07
52 | CAAUUCCUCUGGAUCUACAGGGUUACCUUA | 0.245 ± 0.026
53 | CUAUUCCUCUGGAUCUACUGGGUUACCAA | 0.506 ± 0.067
54 | CUUAAGGACUGGCUCUACUGGGUUACCUAA | 0.142 ± 0.051
55 | CAAUUACCUCUGGAUCUACUGGGUUACCUAA | 0.39 ± 0.061
56 | CAAUUCCUCUGGAUCUAUGGGUUACCUAA | 0.0125 ± 0.0042
57 | CUUAACCUCUGGAUCUACUGGGUUACGAAA | 0.146 ± 0.015
58 | CUUUUCCUCUGGUUCUACUGGCUUACCUAA | 0.14 ± 0.016
59 | CUUAUCGUCUGGAUCUACUGCGUUACCUAA | 0.323 ± 0.041
60 | CUUAAGCUCUGGAUCUACUGGGUUACGAAA | 0.112 ± 0.015
61 | CUUAAGGACUGGAACUACUGGGUUACGUAA | 0.221 ± 0.076
62 | CUUAAGGUCUGCAUCUACUGGGUUUCCUAA | 0.024 ± 0.0062
63 | CUUAAGGACUGGAUCUACUGGAUUACCUAA | 0.149 ± 0.049
64 | CUUAUCCUCCUGGAUCUACUGGGUUACCUAA | 0.438 ± 0.047
65 | CUUAACCUCAGGAUCUUCUGGGUUACCUAA | 0.252 ± 0.036
66 | CUUAACGUCUGGAUCUACAGGGUUACCUAA | 0.123 ± 0.0083
67 | CUUAUGCUCUCGAUCUACUGGGUUACCUAA | 0.349 ± 0.026
68 | CUUAAGCUCUGGAUCAACUGGGAUACCUAA | 0.0594 ± 0.0098
69 | CUUAAGCUCUGGAUCUACUGGCUUACCAAA | 0.0454 ± 0.014
70 | CUUUUCGUCUGGAUCUACUGGGUUACGUAA | 0.459 ± 0.069
71 | CUUAAGCUCUGGGUCUACUGGGUUACCUAA | 0.119 ± 0.013
72 | GAAUUCCAGUGGAUCUACUGGGUUACCUAA | 0.635 ± 0.046
73 | CUUAAGGUCUCGAUCUACUGGGUUACCAAA | 0.135 ± 0.024
